Among all 43,000 compounds or so, about 200 (0.47%) were called active. Another 12% or so got no clear call; they are omitted. Calls follow the shape of the dose curve; as a rule, active = well fitted cell-killing curve with a large enough effect; inconclusive = small, poorly fitted or top-dose-only effect, or effect the other way; inactive = flat fitted curve, though single readings scatter. This is one part of the list.
Assay: Cell viability qHTS assay in S16 Pmp22-F2sN cells; also: nearly all actives have a fitted effect of over 65% in size
Details: S16 Pmp22-F2sN Schwann cells (luciferase reporters placed in the Pmp22 gene) viability, CellTiter-Glo, 24 h; series mostly up to 57.5 µM; activity change, negative = cytotoxicity: at the top concentration
Method in brief: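 Luminescence from CellTiter-Glo, read by CCD camera after a 15 min room-temperature incubation, served as the viability signal. Reporter Schwann cells (S16 Pmp22-F2sN) had been treated with pin-transferred compounds for 24 h at 37C.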
% is scaled to controls: 0 for no effect and ±100 for the full control effect.

Compound	activity change, negative = cytotoxicity
Cc1ccc(C)c(NC(=O)C(C)n2c(=O)cc(C(F)(F)F)c3c(C)nn(C)c32)c1 (configuration not stated)	inactive: 8.2%
CC1CCC(NC(=O)c2ccc3c(c2)N(Cc2cccc(F)c2)C(=O)c2ccccc2S3)CC1 (configuration not stated)	inactive: -5.68%
CCc1ccc(CNC(=O)c2ccc3c(c2)nc2n3CCOC2)cc1	inactive: 10.9%
Fc1ccc(-c2cc(-c3nc(-c4cccc(Cl)c4)no3)[nH]n2)cc1	inactive: 2.09%
Cc1ccc(NC(=O)C(=O)NCC(c2cccnc2)N2CCN(C)CC2)cc1C (configuration not stated)	inactive: -2.81%
Cc1ccc(OCC(=O)Nc2ccc(C(=O)OCc3cc(=O)n4nc(C5CC5)sc4n3)cc2)cc1	inactive: 25.5%
COc1ccc(NC(=O)c2oc3c(c2C)-c2nn(Cc4c(F)cccc4Cl)cc2CC3)c(OC)c1	inactive: 1.36%
COc1ccc(CNc2nc3c(S(=O)(=O)c4ccccc4)nnn3c3ccc(Cl)cc23)cc1	inactive: -1.29%
CCOc1ccc(Nc2oc(/C=C/c3ccc(F)cc3)nc2C#N)cc1	inactive: -0.614%
CCOC(=O)c1ccccc1NC(=O)CSc1ccc(-c2sc(-c3ccccc3)nc2C)nn1	inactive: -0.0607%
Cc1cc(C)n(-c2nc3ccccc3nc2Nc2cccc(C(F)(F)F)c2)n1	inactive: 4.71%
COc1ccc(OC)c(-c2nc(Nc3ccccc3C)sc2CC(=O)O)c1	inactive: -21.9%
COc1ccc(C2C(C(=O)Nc3ccccc3)=C(C)Nc3nc(-c4ccccc4)nn32)cc1OC (configuration not stated)	inactive: 10.7%
O=C1CCSC2(C(=O)N(Cc3ccc(F)cc3)c3ccccc32)N1c1ccccc1 (configuration not stated)	inactive: -1.97%
Fc1ccccc1CNCCCSc1nnnn1-c1ccccc1	inactive: -1.44%
Cc1cc(C)c2c(CC(=O)Nc3nnc(C(C)C)s3)coc2c1	inactive: 2.24%
COc1ccc(-c2cc(C(C)=O)c(C)n2CCC(=O)Nc2cc(C)ccc2OC)cc1	inactive: -5.49%
O=c1c2ccccc2n(Cc2cccc(Cl)c2)c(=O)n1CCc1ccccc1	inactive: 25.5%
CC(=O)NCCc1nc2ccccc2n1CCCCOc1ccc(Cl)cc1	inactive: -15%
CCOC(=O)c1cc(OC(=O)c2cccc(C)c2)n(-c2ccccc2)n1	inactive: 2.72%
COc1cccc(CNc2ncnc3onc(-c4ccc(F)cc4)c23)c1	inactive: 0.756%

Compound	activity change, negative = cytotoxicity
CC(=O)Nc1nonc1-c1nnc(SCC(=O)Nc2cc(C)ccc2C)n1-c1ccccc1	inactive: -2.69%
COc1cccc2cc(-c3nc4sc(C(=O)Nc5ccc(F)cc5F)c(C)c4c(=O)[nH]3)c(=O)oc12	inactive: -2.21%
COCc1cc(C)nc2sc3c(=O)n(-c4cc(C)ccc4C)nnc3c12	inactive: 17%
CCOC(=O)c1ccccc1NC(=O)N1CCN2CCCCC2C1 (configuration not stated)	inactive: -2.18%
Cc1ccc(C)c(N2CCN(c3ncnc4onc(C)c34)CC2)c1	inactive: -4.42%
COCCNC(=O)CSc1nc(-c2ccc(F)cc2)[nH]c1-c1ccc(Cl)cc1	inactive: -0.798%
CC(CNC(=O)Cn1ncc2c3ccccc3n(Cc3cccc(Cl)c3)c2c1=O)c1ccccc1 (configuration not stated)	inactive: -23.8%
COc1ccc(OC)c(C2CC(=O)N(c3cccc(C)c3)C3=C2C(=O)OC3)c1 (configuration not stated)	inactive: 3.94%
Cc1cccc(CC(=O)NC2CC(=O)N(c3cccc(F)c3)C2)c1 (configuration not stated)	inactive: 4.69%
COc1ccc(OC)c(NC(=O)C2CCN(S(=O)(=O)c3ccc(C)cc3)CC2)c1	inactive: 3.85%
CC(C)CCNC(=O)C(=O)Nc1c2c(nn1-c1ccccc1)CS(=O)(=O)C2	inactive: -3.11%
COc1ccccc1N1CCN(S(=O)(=O)c2ccc(-c3cc(C(F)(F)F)on3)s2)CC1	inactive: -11.1%
CNS(=O)(=O)c1cn(CC(=O)Nc2ccc(OC)c(Cl)c2)cc1S(=O)(=O)NC	inactive: 16.1%
CN(C(=O)CSc1nc2ncccc2o1)c1ccc(F)cc1	inactive: 2.7%
CCCOc1ccc(-c2cccc(NS(=O)(=O)c3cc(OC)ccc3OC)c2)nn1	inactive: 3.95%
O=C(NCc1ccc(Cl)cc1)c1cnc2sc(N3CCCCCC3)nn2c1=O	inactive: 4.57%
COc1ccc(C(c2c(O)cc(C)n(Cc3ccco3)c2=O)N2CCN(c3ccccc3)CC2)cc1 (configuration not stated)	inactive: -8.65%
CCN(CC)c1ccc(NC(=O)c2cnn3c(C(F)F)cc(-c4ccccc4)nc23)cc1	inactive: -14.7%
O=C(CCC(=O)N1Cc2ccccc2Oc2ncccc21)NCc1ccccc1Cl	inactive: 4.87%
Cc1ccccc1-n1nc(CO)c(C(=O)NCCc2ccccc2)n1	inactive: 3.45%
COc1cccc(NC(=O)C(=O)NCC(c2cccnc2)N2CCN(c3ccccc3)CC2)c1 (configuration not stated)	inactive: 1.38%

Compound	activity change, negative = cytotoxicity
COc1ccc(OC)c(CNc2ncnc3onc(-c4ccc(Cl)cc4)c23)c1	inactive: -8.76%
CCOC(=O)CSc1nc2ccc(NC(=O)COc3ccccc3)cc2s1	inactive: 11.5%
Cc1cccc(CSc2cn(CC(=O)N3CCCCCC3)c3ccccc23)c1	inactive: -5.14%
CC1CCc2c(sc(NC(=O)c3ccccc3)c2C(=O)Nc2ccccc2)C1 (configuration not stated)	inactive: 9.63%
CCOc1ccc(-c2nonc2NC(=O)COc2ccc(C)c(C)c2)cc1OCC	inactive: 1.38%
O=C(c1ccc2c(c1)N(Cc1cccc(Cl)c1)C(=O)c1ccccc1S2(=O)=O)N1CCN(c2cccc(C(F)(F)F)c2)CC1	inactive: -0.708%
CCOc1ccc(NC(=O)CSc2nnc(NC(=O)Nc3ccccc3)s2)cc1	inactive: 1.56%
CCOc1ccc(-c2cnc(NCc3cccc(Cl)c3)n2C)cc1	inactive: 4.01%
COc1ccc(C(=O)CCC(=O)Nc2cccc(C(C)=O)c2)cc1	inactive: 0.997%
COc1ccc(CCNC(=O)Cn2c(=O)c3cccn3c3ccc(F)cc32)cc1OC	inactive: 10.1%
CCC(=O)N1CCc2cc(S(=O)(=O)CCC(=O)N3CCN(c4ccccc4F)CC3)ccc21	inactive: 14.9%
CC(=O)c1ccc(NS(=O)(=O)c2ccc3[nH]c4c(c3c2)CCCCCC4)cc1	inactive: -0.873%
CCC(CC)C(=O)N1CCc2cc(OC)c(OC)cc2C1COc1ccccc1OC (configuration not stated)	inactive: 3.21%
Cc1ccc(C)c(Cn2nnc(C(=O)NCc3ccccc3)c2N)c1	inactive: -6.83%
Cc1cc2oc(C(=O)Nc3nc(-c4ccccc4)ns3)c(C)c2cc1Cl	inactive: 3.25%
Cc1ccc(NC(=O)CN2C(=O)CCc3cc(S(=O)(=O)N4CCOCC4)ccc32)c(C)c1	inactive: -11.9%
CCOc1ccc(CNC(=O)c2sc3nc(C)cc(C)c3c2-n2cccc2)cc1	inactive: -3.71%
CN1CCN(C(CNC(=O)C(=O)Nc2ccc(F)cc2)c2cccnc2)CC1 (configuration not stated)	inactive: 7.71%
COc1ccc2c(c1)c1c(c(=O)n(Cc3ccccc3)c(=O)n1Cc1ccccc1Cl)n2C	inactive: 1.84%
COc1ccc(OCC(=O)Nc2c(C(=O)N3CCN(c4ccccc4)CC3)oc3ccccc23)cc1	inactive: -0.828%

Source: PubChem BioAssay AID1508642 (National Center for Advancing Translational Sciences (NCATS), 2021)
